{"source": "PubChem BioAssay AID485344", "about": "(National Center for Advancing Translational Sciences (NCATS), 2010)", "note": "“And” between values parts separate entries of the source, which are not always exact repeats. Equal entries are not always repeated. Out of some 340,000 compounds screened, about 6,900 (2%) were called active. No stated cut-off is given here; in the data, active means inhibition above about 30%; inactive means below that, where a call was filed. The list shows a part of the results, in another mix than the full data. Entries without a call were filed so in the source.", "data": [{"target": "D(2) dopamine receptor (Homo sapiens) (UniProt P14416)", "sequence (P14416 whole entry, looked up)": "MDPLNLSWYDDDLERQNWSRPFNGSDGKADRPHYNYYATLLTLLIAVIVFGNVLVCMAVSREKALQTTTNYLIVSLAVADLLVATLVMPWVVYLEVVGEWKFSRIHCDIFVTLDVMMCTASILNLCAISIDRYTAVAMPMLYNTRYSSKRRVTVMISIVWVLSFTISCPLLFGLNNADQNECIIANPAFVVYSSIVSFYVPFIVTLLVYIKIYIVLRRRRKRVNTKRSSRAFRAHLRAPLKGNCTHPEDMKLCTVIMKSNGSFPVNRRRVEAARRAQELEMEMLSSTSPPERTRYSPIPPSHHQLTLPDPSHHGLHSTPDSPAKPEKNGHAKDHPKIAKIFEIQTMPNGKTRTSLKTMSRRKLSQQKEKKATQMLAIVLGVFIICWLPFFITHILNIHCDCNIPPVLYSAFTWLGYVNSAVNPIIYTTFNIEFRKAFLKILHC", "assay": "HTS Assay for Allosteric Antagonists of the Human D2 Dopamine Receptor: Primary Screen for Antagonists; further: 0% is about no effect", "conditions": "HEK293 TREx D2 cells, calcium flux, dopamine EC80; at 10 µM; stronger effect = higher value", "summary_of_the_method": "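Measurement of antagonist activity uses fluorescent calcium dye in inducible HEK293 T-REx D2 cells: 10 s baseline, compound addition with 180 s read, EC80 dopamine addition with a further 180 s read.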", "values": [{"smiles": "COc1ccc(CCCc2nnc(SCC(=O)Nc3ccc(OC)cc3)o2)cc1", "inhibition": "-12.7%"}, {"smiles": "CN1C(=O)Cc2cc(S(=O)(=O)CCC(=O)Nc3ccc(F)c(Cl)c3)ccc21", "inhibition": "-11.2%"}, {"smiles": "COc1ccc(C2(c3ccc(OC)cc3)NC(=O)N(CC(=O)NCC(C)c3ccccc3)C2=O)cc1", "note": "(stereo not given)", "inhibition": "active: 67.8%"}, {"smiles": "O=C(Nc1cc(F)ccc1F)N1CCC(CN2CCCC2)CC1", "inhibition": "3.51%"}, {"smiles": "Cc1ccc(C)c(NC(=O)c2cc(S(=O)(=O)N3CCCCCC3)ccc2F)c1", "inhibition": "14.8%"}, {"smiles": "CN(C)CCN(Cc1ccco1)C(=O)c1oc2ccccc2c1NC(=O)c1ccccc1", "inhibition": "18.1%"}, {"smiles": "Cc1ccccc1C(=O)OCc1cc(=O)n2nc(-c3cccs3)sc2n1", "inhibition": "-16%"}, {"smiles": "CCOC(=O)c1c(CN2CCCCC2)n(C)c2cc(Br)c(O)c(CN(C)C)c12", "inhibition": "active: 60.5%"}, {"smiles": "COc1cccc(CCNC(=O)c2c(O)nc3ccccn3c2=O)c1", "inhibition": "0.995%"}, {"smiles": "CCOc1ccccc1NC(=O)c1cnn2c(C(F)F)cc(-c3ccccc3)nc12", "inhibition": "12.2%"}, {"smiles": "COCCCNC(=O)C1CCN(c2nn3cc(-c4ccc(F)cc4)nc3s2)CC1", "inhibition": "12.7%"}, {"smiles": "CCOc1ccc(C(=O)Nc2c3c(nn2C(C)(C)C)CSC3)cc1OCC", "inhibition": "active: 30.1%"}, {"smiles": "Cc1ccc(OCC(=O)N(Cc2ccco2)Cc2ccc(C)o2)cc1", "inhibition": "-27.3%"}, {"smiles": "COc1ccc(-c2cc(C(F)(F)F)n3nc(C(=O)Nc4ccccc4SC)cc3n2)cc1OC", "inhibition": "-13.4%"}, {"smiles": "CCC(C)NC(=O)c1nn(-c2ccc(C)cc2)c(=O)n(C)c1=O", "note": "(stereo not given)", "inhibition": "26.4%"}, {"smiles": "COc1cc2c(=O)n(CCC(=O)NCC3CCCO3)c(=O)n(CC(=O)Nc3ccc(C)c(C)c3)c2cc1OC", "note": "(stereo not given)", "inhibition": "-14.1%"}, {"smiles": "CCCCCn1c(-c2ccc(OC)c(OC)c2)nc2ccccc21", "inhibition": "-1.59%"}, {"smiles": "Cc1ccc(Cl)cc1N1CCN(S(=O)(=O)c2ccc3c(c2)CCCN3C(=O)C2CCC2)CC1", "inhibition": "-25.7%"}, {"smiles": "O=C(NCCc1ccccc1)c1cc(Sc2cccc(Cl)c2)nc2ccccc12", "inhibition": "-4.78%"}, {"smiles": "COc1cc(OC)c(NC(=O)Cn2c(=O)oc3cc(S(=O)(=O)N4CCCC4)ccc32)cc1Cl", "inhibition": "1.58%"}, {"smiles": "Cc1ccc(CN2C(=O)c3oc4ccc(C)cc4c(=O)c3C2c2ccc(O)cc2)cc1", "note": "(stereo not given)", "inhibition": "-10.2%"}, {"smiles": "COc1ccc(NS(=O)(=O)c2ccc3[nH]c4c(c3c2)CCCC4)cc1Cl", "inhibition": "5.42%"}, {"smiles": "Cc1ccc(C)n1-c1nnc(N2CCCC(C(=O)NCc3cccc(Cl)c3)C2)s1", "note": "(stereo not given)", "inhibition": "0.869%"}, {"smiles": "O=C(NC1CCN(Cc2ccccc2)CC1)c1ccc(Cl)cc1Cl", "inhibition": "active: 61.4%"}, {"smiles": "CCc1ccc(-n2c(Cc3ccccc3)nnc2SCc2nc(-c3cccs3)no2)cc1", "inhibition": "13.6%"}, {"smiles": "CNC(=O)c1ccc(NC(=O)C2CCN(S(=O)(=O)c3cccc(C(F)(F)F)c3)CC2)cc1", "inhibition": "active: 30.3%"}, {"smiles": "CC1=C(C(=O)NCc2ccc(Cl)cc2)C2(CCCCC2)OC1=O", "inhibition": "-6.85%"}, {"smiles": "Cc1ccc(/C=C/c2onc(C)c2S(=O)(=O)N2CCC(C(=O)NCC(C)c3ccccc3)CC2)cc1", "note": "(stereo not given)", "inhibition": "22.8%"}, {"smiles": "CCn1cc(S(=O)(=O)c2cccc(Cl)c2)c(=O)c2cc(F)c(N3CCN(c4ccccc4)CC3)cc21", "inhibition": "2%"}, {"smiles": "Cc1nc2ccn(Cc3cccs3)c(=O)c2cc1C(=O)Nc1ccccc1", "inhibition": "1.54%"}, {"smiles": "Cc1ccc(-n2nc(C)c(/C=N/NC(=O)c3cccs3)c2Cl)cc1", "inhibition": "active: 32.5%"}, {"smiles": "Cc1ccccc1C(=O)Nc1nc(-c2nnn(-c3ccc(C(C)C)cc3)c2C)ns1", "inhibition": "-2.46%"}, {"smiles": "Cc1ccc(C(C)C)c(OCCNCc2ccccc2)c1", "inhibition": "active: 67.2%"}, {"smiles": "CCOc1ccccc1CNC(=O)C1CCN(S(=O)(=O)c2ccc3c(ccn3C)c2)CC1", "inhibition": "-11.8%"}, {"smiles": "Cc1cc(Cl)ccc1NC(=O)CN(c1ccccc1Br)S(C)(=O)=O", "inhibition": "13.9%"}, {"smiles": "CCOc1ccc(C(=O)NCCS(=O)(=O)N2CCN(c3ccccc3F)CC2)cc1OCC", "inhibition": "26.2%"}, {"smiles": "CCc1nn2c(=O)cc(COC(=O)c3ccco3)nc2s1", "inhibition": "8.6%"}, {"smiles": "Cc1ccc(-c2cn3c(n2)sc2cc(C(=O)NC(C)C45CC6CC(CC(C6)C4)C5)ccc23)cc1", "note": "(stereo not given)", "inhibition": "-23.4%"}, {"smiles": "CCOC(=O)C1CCN(S(=O)(=O)c2csc(C(N)=O)c2)CC1", "inhibition": "5.97%"}, {"smiles": "COc1ccc(N2CCN(C(=O)c3cc4c(s3)-c3ccccc3OC4)CC2)cc1", "inhibition": "15.8%"}, {"smiles": "COc1ccc(N2CC(NC(=O)c3ccc(Br)o3)CC2=O)cc1", "note": "(stereo not given)", "inhibition": "14.2%"}, {"smiles": "CCCSc1nc2sc3c(c2c(=O)n1Cc1ccccc1)CC(C)(CC)OC3", "note": "(stereo not given)", "inhibition": "-8.47%"}, {"smiles": "Cc1ccc(NC(=O)C2CCC(CNS(=O)(=O)c3csc(C(N)=O)c3)CC2)cc1Cl", "note": "(stereo not given)", "inhibition": "3.34%"}, {"smiles": "COc1ccc(C2(CNC(=O)C(=O)Nc3ccc(F)cc3)CCCC2)cc1OC", "inhibition": "5.72%"}, {"smiles": "COC(=O)c1nnn(-c2cccc(C)c2)c1C(=O)OC", "inhibition": "-2.99%"}, {"smiles": "CCc1ccccc1NC(=O)C(=O)NCC(c1cccnc1)N1CCN(c2ccccc2F)CC1", "note": "(stereo not given)", "inhibition": "-3.49%"}, {"smiles": "CCOC(=O)c1c(S(=O)(=O)NCC(=O)Nc2cc(C)ccc2C)c(C)n(C)c1C", "inhibition": "-1.84%"}, {"smiles": "CCc1nn(Cc2cc(C)ccc2C)c(=O)c2cc3cc(C)ccc3n12", "inhibition": "13.9%"}, {"smiles": "COc1ccc(C(=O)Oc2cc(N)n(S(=O)(=O)c3ccc(C)cc3)n2)cc1", "inhibition": "active: 38.4%"}, {"smiles": "Cc1ccc(NS(=O)(=O)c2ccc3c(c2)CCCN3C(=O)C2CCC2)c(C)c1", "inhibition": "-22.5%"}, {"smiles": "CCN1CCN(c2ncc3c(n2)CCN(Cc2ccc(OC(C)C)cc2)C3)CC1", "inhibition": "13.9%"}, {"smiles": "COc1ccc([N+](=O)[O-])cc1/C=N/NC(=O)/C(=C\\c1cccs1)NC(=O)c1ccccc1", "inhibition": "active: 42.8%"}, {"smiles": "Cc1cccc(-c2nc(SCCCOc3ccc(Cl)c(C)c3)n3[nH]c(=O)cc3n2)c1", "inhibition": "4.44%"}, {"smiles": "CCOC(=O)c1cccc(NC(=O)NCc2ccc3c(c2)CCN3C(=O)c2ccccc2)c1", "inhibition": "7.34%"}, {"smiles": "CCOC(=O)c1ccc(-c2ccc(/C=C(\\C#N)C(=O)Nc3ccc(OCC)cc3)o2)cc1", "inhibition": "-2.76%"}, {"smiles": "CCOC(=O)N1CCc2c(sc(NCc3cc(OC)c(OC)cc3OC)c2C(=O)Nc2ccc(OCC)cc2)C1", "inhibition": "-24.8%"}, {"smiles": "CCc1ccc(-n2c(=O)c3cccnc3n2CC(=O)Nc2cc(F)ccc2F)cc1", "inhibition": "6.26%"}, {"smiles": "CCN(CC)C(=O)Cn1cc(SCC(=O)Nc2ccccc2C)c2ccccc21", "inhibition": "6.3%"}, {"smiles": "Oc1cccc(Nc2ncnc3ccccc23)c1", "inhibition": "active: 51%"}, {"smiles": "COc1ccc(S(=O)(=O)Cc2ccc(C(=O)N3CCN(c4cc(C)ccc4C)CC3)o2)cc1", "inhibition": "-2.66%"}, {"smiles": "O=C(O)c1cccnc1SCc1cccc(Cl)c1", "inhibition": "-24.3% and active: 44.6%"}, {"smiles": "O=C(Nc1cccc(-c2nc3ccccc3[nH]2)c1)c1c(F)cccc1F", "inhibition": "10.6%"}, {"smiles": "Cc1ccc(C(=O)NCC(=O)OCc2cc(=O)n3nc(C4CC4)sc3n2)cc1", "inhibition": "-3.18%"}, {"smiles": "CCOC(=O)c1c(C)oc2nc(C)nc(NCCCN3CCN(c4cc(Cl)ccc4C)CC3)c12", "inhibition": "21.2%"}, {"smiles": "CCOC(=O)c1cccc(NC(=O)Nc2ccc3c(c2)N(C)C(=O)c2ccccc2S3)c1", "inhibition": "9.57%"}, {"smiles": "Cc1ccc(-c2noc(-c3nnn(CC(=O)Nc4cccc(C(F)(F)F)c4)c3N)n2)cc1", "inhibition": "11.6%"}, {"smiles": "CCCNC(=O)c1c(NC(=O)c2ccc(C)cc2)sc2c1CCCCC2", "inhibition": "7.35%"}, {"smiles": "CC(=O)N1CCOc2cc(S(=O)(=O)Nc3cc(C(F)(F)F)ccc3Cl)c(C)cc21", "inhibition": "19.9%"}, {"smiles": "CCSc1ncc(Cl)c(C(=O)N(Cc2ccc(C(C)(C)C)cc2)C2CCS(=O)(=O)C2)n1", "note": "(stereo not given)", "inhibition": "-14.8%"}, {"smiles": "COc1ccc2c(c1)c1c(c(=O)n(Cc3ccccc3)c(=O)n1Cc1ccccc1)n2C", "inhibition": "-0.325%"}, {"smiles": "c1ccc(CCCNCC2COc3ccccc3O2)cc1", "note": "(stereo not given)", "inhibition": "active: 85.9%"}, {"smiles": "O=C(CSc1nnc(-c2ccncc2)n1-c1ccccc1)Nc1ccc(Br)cc1", "inhibition": "5.62%"}, {"smiles": "O=C(COc1ccc(S(=O)(=O)N2CCCCC2)cc1)N1CCCC1", "inhibition": "active: 31%"}, {"smiles": "CCOc1cc(C)c(C(C)C)cc1S(=O)(=O)n1ccnc1CC", "inhibition": "15%"}, {"smiles": "CCOc1ccc(NC(=O)C2CCN(S(=O)(=O)c3ccc4c(c3)oc(=O)n4C)CC2)cc1", "inhibition": "-11.5%"}, {"smiles": "CCOc1ccc2nc(N3CCC(C(=O)Nc4ccc(Br)cc4F)CC3)sc2c1", "inhibition": "-7.32%"}, {"smiles": "COc1ccc2c(c1)CC(NC(=O)Nc1ccc(NC(C)=O)cc1)CO2", "note": "(stereo not given)", "inhibition": "14.2%"}, {"smiles": "COc1ccccc1CNC(=O)C1CCN(Cc2cc3ccccc3n2Cc2cccc(C)c2)CC1", "inhibition": "4.91%"}, {"smiles": "O=C(NCc1ccccc1Cl)c1ccc(NC(=O)c2nsc3ccccc23)cc1", "inhibition": "-6.5%"}, {"smiles": "Cc1ccccc1Cn1c(=O)n(CCCCC(=O)NCc2ccccc2Cl)c(=O)c2ccccc21", "inhibition": "-3.61%"}, {"smiles": "COc1ccc(Cl)cc1NC(=O)Cn1nc(C(F)(F)F)c2c1CCC2", "inhibition": "8.41%"}, {"smiles": "COc1ccc(CCC(=O)NCc2nc3cccnc3n2Cc2cccc(OC)c2)cc1", "inhibition": "20.3%"}, {"smiles": "Cc1c(C(=O)Nc2ccccc2Br)oc2ccc(S(=O)(=O)N3CCOCC3)cc12", "inhibition": "-28.6%"}, {"smiles": "CCCCc1nn2c(=O)cc(COC(=O)C(C)Oc3ccccc3)nc2s1", "note": "(stereo not given)", "inhibition": "0.606%"}, {"smiles": "CCC1CN(C(=O)N2CCC(C(=O)N3CCN(c4ccc(F)cc4)CC3)CC2)c2ccccc2O1", "note": "(stereo not given)", "inhibition": "-4.14%"}, {"smiles": "CCOC(=O)N1CCc2c(sc3c2c(=O)n(-c2ccc(CC)cc2)c(=O)n3CC(=O)c2ccccc2)C1", "inhibition": "-12%"}, {"smiles": "Cc1ccc(NC(=O)C2CCN(C(=O)c3cnn(-c4ccccc4)c3-n3cccc3)CC2)cc1", "inhibition": "19.5%"}, {"smiles": "COc1ccc(NS(=O)(=O)c2ccc3c(c2)CCCN3C(=O)C2CCC2)cc1OC", "inhibition": "6.02%"}, {"smiles": "Cc1ccccc1OCC(=O)Nc1c(C)ccc2nsnc12", "inhibition": "6.93%"}, {"smiles": "CC1CCN(S(=O)(=O)c2ccc3c(ccn3CC(=O)NCc3ccc(N(C)C)cc3)c2)CC1", "inhibition": "1.17%"}, {"smiles": "CC(C)c1ccc(S(=O)(=O)c2nnn3c2nc(N2CCOCC2)c2sccc23)cc1", "inhibition": "-9.17%"}, {"smiles": "COc1ccc(C(=O)Nc2cc(C)ccc2NC(=O)COc2ccccc2)cc1", "inhibition": "active: 44.4%"}, {"smiles": "CCCCCn1c(=O)[nH]c2cc(C(=O)NCc3ccc(F)cc3)ccc2c1=O", "inhibition": "3.05%"}, {"smiles": "Cc1cccc(-n2c(=O)c3c(c4cc(C)ccc4n3C)n(CC(=O)Nc3ccccc3Cl)c2=O)c1", "inhibition": "-11%"}, {"smiles": "COCCNC(=O)c1ccc2c(c1)N(Cc1ccc(C(F)(F)F)cc1)C(=O)c1ccccc1S2", "inhibition": "2.11%"}]}]}
